PMC12136788
Where a chain is given by its changes, count along the chain named. The list shows a part of the results.

T1: UNK ZnF1-3 (human, UniProt Q9C0B0 31-174)
T1 sequence: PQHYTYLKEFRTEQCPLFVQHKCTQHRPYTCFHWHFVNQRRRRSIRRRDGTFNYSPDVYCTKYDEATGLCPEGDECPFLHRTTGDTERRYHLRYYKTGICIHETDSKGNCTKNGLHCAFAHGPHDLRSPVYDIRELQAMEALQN

B1: 106595634_106595754_4042_CDS_ENSMUSG00000040661_ENSMUST00000046502|mouse|control|control (ssRNA)
RNA: GGGAGUUCUACAGUCCGACGAUCGGACCGUCGACGGACUGAUUCCUGGGUGACAGACGGAGUAGCCAACUUUCGCUUAUGGCCCCUUAAGUCCAGCACUGGGUGCCUGCCACCACUGGGCUGGCCAGUCACCAAGAGGGAACUCAACAGAGGAUUGAGCAUCA
B2: chr4:120733482:120733483:-_ENSMUSG00000043207_ENSMUST00000058754|mus_mus|FALSE|FALSE (ssRNA)
RNA: GGGAGUUCUACAGUCCGACGAUCGUUUUAAGAAAUGGAUUAUUAAAAUCAUUUUUGAAAUGAGAUAGUAAAUGUAUUUAAAUCUGGACUUUUAUGUACGUAAUCAUUUUUCUUAAAAAAAUUAAAAACAUCAAGAGCCGGAACCAACAGAGGAUUGAGCAUCA
B3: 144403502_144406234_989_CDS_ENSG00000184428_ENST00000329245|human|control|control (ssRNA)
RNA: GGGAGUUCUACAGUCCGACGAUCCACGGUGUCGGCCGCCUCACCGUCCUCCUUCUCAUUUCCUGCUCUCAGUGCCAGCUUAUCGAUGAAAUACAGGGCCACCGCCCGCUGUCUCGUCUUCAUUUCCCGAGACUUCCAGUCAGCCAACAGAGGAUUGAGCAUCA
B4: 193054621_193054741_2180_3pUTR_ENSG00000116747_ENST00000432079|human|control|control (ssRNA)
RNA: GGGAGUUCUACAGUCCGACGAUCGUGAAUGAGGGGGAGUUAAGCGCUUGAAACAUUUUAUAUUAUUUACACUUAAGAGUAUGAAAAACAGUGUGAGACUACAUCUGGCUAUGUUAUUAUAAUUCAGAGGAAAUCAUUAUCAAGCAACAGAGGAUUGAGCAUCA
B5: chr4:11413230:11413231:+_ENSMUSG00000040720_ENSMUST00000059914|mus_mus|motif|central (ssRNA)
RNA: GGGAGUUCUACAGUCCGACGAUCAAACGAACCACAUCUAUAUGAGAACUUUGCUCAGCGCUCGGAUGUUUAAAAGUAUCGGAAAAUAGCAGCUCCAUAGACGAGUCCACCGCCAUGUCUGCCGCGGGCGGGGGACCGGGAGAUCAACAGAGGAUUGAGCAUCA
B6: chr14:76420884:76420885:+_ENSG00000119685_ENST00000298832|hu_hu|FALSE|FALSE (ssRNA)
RNA: GGGAGUUCUACAGUCCGACGAUCCUACUGCCACUUCUGCUCGAAGGCUUUGGGGACUUUGAGGCAGCAAAAAAAAAAAUACUAUGGACCCCUUGAAGUGCUGGUGGAUGCUUCACCCUCAAUCAUGCACCCAGGAGUGGUGAACAACAGAGGAUUGAGCAUCA
B7: chr4:144460044:144460045:+_ENSG00000153147_ENST00000283131|hu_mus|hu_hu_hu_mus_False|1_98 (ssRNA)
RNA: GGGAGUUCUACAGUCCGACGAUCACGGUCCAUAGCCUGAAGAUCUACUUGCGGAUUCCAAUCUGAGUCAUAUAAAAUGACUACAUCAGCAGUUGCAAGAUUGAUGCCCAGACCACCAGCACGUGUGCUUAGCAUAAAAACAAACAACAGAGGAUUGAGCAUCA
B8: chr4:148551591:148551592:-_ENSMUSG00000063077_ENSMUST00000060537|mus_hu|mus_mus_mus_hu_False|1_28 (ssRNA)
RNA: GGGAGUUCUACAGUCCGACGAUCACCUGACAAAAUUAAAUAUCCCUGUAAAUUAGACAAUAAGCAGCAGGCAACAAAGUCUUUGCUUUGGAAUAUGUGCCAGGAAAAAUCAUGUUUUUUUUAGAUCUCAAGAGACACAACCAUCAACAGAGGAUUGAGCAUCA
B9: chr4:144460044:144460045:+_ENSG00000153147_ENST00000283131|hu_mus|hu_hu_hu_mus_False|18_98 (ssRNA)
RNA: B7 RNA with U123C, A138U
B10: 120115652_120115772_1370_3pUTR_ENSG00000163430_ENST00000295633|human|control|control (ssRNA)
RNA: GGGAGUUCUACAGUCCGACGAUCUUGCAAAACAAAUAAACAAAAUAAAACUCAUUGCUAUAUAAGCAAAUACUGGUGAUUUGGCGACUGUAGCAGACACUUGUGUAUACUGAACUCAGCGCUGAAGUGGAGAAGAUGCUGGGACAACAGAGGAUUGAGCAUCA
B11: chr2:216981417:216981418:+_ENSG00000079246_ENST00000392132|hu_hu|hu_hu_hu_mus_True|18_58 (ssRNA)
RNA: GGGAGUUCUACAGUCCGACGAUCCUGAUACUGGUCCUUGCCAGCAAGGGCAUUAUCAGUGCCAUCUGUGCCAUAGAGGACUAAAGCAAUCUCAUCUUUGCUCUCCGAAAAUACCUGUCGCUGUACAAACAUAGUCAUCACUUUCAACAGAGGAUUGAGCAUCA
B12: 37144847_37144967_1003_CDS_ENSG00000170471_ENST00000397040|human|control|control (ssRNA)
RNA: GGGAGUUCUACAGUCCGACGAUCAAAUAUUUGAGGCAGAUGUUUAAGGCAGGGAUACUGAUUCAAUUCUUGCGGCAUUCCGCUCACAUUCAAGAACUGUUCCUGAAAUUUGGGAGUAGAGCUUAUAAUAGCUGGGUUACUCAACAACAGAGGAUUGAGCAUCA
B13: chr1:150204182:150204183:-_ENSG00000143401_ENST00000314136|hu_mus|FALSE|FALSE (ssRNA)
RNA: GGGAGUUCUACAGUCCGACGAUCCAAGCUGGGAAGCCGGGCCAAGGAACUCAACUCCACGUUGGCCAUGCUAAGAAACUCCAGUUCCUUAAAGGUGUCAUUCAGGCCUUCGAUUUCCCCAUUGACACACAAGCAAUUAUCGAGCAACAGAGGAUUGAGCAUCA
B14: chr2:74706439:74706440:+_ENSMUSG00000027099_ENSMUST00000155844|mus_mus|motif|central (ssRNA)
RNA: GGGAGUUCUACAGUCCGACGAUCGUCUGAUCUCAAGCCUUAUCCUCUUAUACCUCUGCAGUCAGCAGCAUAUUGUUGACGGAUUCCAUGUAGGCUUUCAUUUCUGCUUUUUGGACUUCAUCCAACCCAUCACUAAGAGAAUGGCAACAGAGGAUUGAGCAUCA
B15: chr4:144460044:144460045:+_ENSG00000153147_ENST00000283131|hu_mus|hu_hu_hu_mus_False|28_28 (ssRNA)
RNA: B7 RNA with U45A, C108A, A138U
B16: chr3:179287964:179287965:+_ENSG00000136518_ENST00000429709|hu_hu|hu_hu_hu_mus_True|38_88 (ssRNA)
RNA: GGGAGUUCUACAGUCCGACGAUCCUUGAGUGGUGAGAUGGCCUCCAUAUUCUCCCUGGGCACGCGGAGGGCAUUGGUGUCUAUGUAGUAGGUGGGCCCGCCUUGUUUGCCUUUGUCACCAUCAAUCUCCAUCAUUGUACUUCCCAACAGAGGAUUGAGCAUCA
B17: chr12:39756943:39756944:-_ENSG00000139116_ENST00000544797|hu_mus|hu_hu_hu_mus_False|58_88 (ssRNA)
RNA: GGGAGUUCUACAGUCCGACGAUCGGUUUGGCUGUUACCCCCAAGGGAAUCCUGUAGGAGUCUUGUCAGCUUAGAGUCUCUAUAGGGGACAUGGGUGGCUCUCUUGCUCUUGUCCCCCAAGGCGCUGAUUACAUUCCCAAGAGCCAACAGAGGAUUGAGCAUCA
B18: chr2:47387770:47387771:-_ENSG00000143933_ENST00000272298|hu_mus|hu_hu_hu_mus_True|18_28 (ssRNA)
RNA: GGGAGUUCUACAGUCCGACGAUCAAGGUUUAAGGACAAUGACAGUAAGAUAAGGGAAGAAAACAUGGAGGAAUGAAGUCCUAAUUACUAUACAUGCAUAUUUUUUGGACAGUAGGGAGAAACCUUUUUUACAGAUAAGUUACACAACAGAGGAUUGAGCAUCA
B19: chr1:157179356:157179357:-_ENSMUSG00000026469_ENSMUST00000027741|perfect_dup|motif|central (ssRNA)
RNA: GGGAGUUCUACAGUCCGACGAUCCAGGAUGAGACUGAGGUAGAACUCGCUGAAGGCCAGCUUAAGGUCUUUAAUGUUCCGGUGUUGGACACGCUCCUCGUGGGACAGGUGGAACACUGGCUUUCUGCGCUGUCGCAAUGUCGUCAACAGAGGAUUGAGCAUCA
B20: chr11:118639009:118639010:-_ENSG00000110367_ENST00000264018|hu_mus|FALSE|FALSE (ssRNA)
RNA: GGGAGUUCUACAGUCCGACGAUCUUCAAGUAAGGGGAUGAGGUAGGCACCGCUUUUGCCUGUUCCAUUUUUUGCUCUAGCUAAGAUAUCCCUACCAGAUAAAGCAAUGGGAAUGCUCUCCUCCUGGAUAGGAGAUGGUUUUUCCAACAGAGGAUUGAGCAUCA
B21: chr12:70442348:70442349:-_ENSMUSG00000020982_ENSMUST00000021368|mus_hu|FALSE|FALSE (ssRNA)
RNA: GGGAGUUCUACAGUCCGACGAUCAACAGGGUCUCCUUGAGCCUGGGCUUCUUUCACAAUUAACCCAAUUUCUGUCCAAUCUAUCUGGUUAGCUAAAGCACUUCGAACUACCUGAAUGGCUCUGUCAACUAUUUGUAGGUUCAUCAACAGAGGAUUGAGCAUCA
B22: chr1:66480114:66480115:+_ENSMUSG00000015222_ENSMUST00000024639|mus_hu|mus_mus_mus_hu_True|1_28 (ssRNA)
RNA: GGGAGUUCUACAGUCCGACGAUCUGGCCUGUGGCGGAUGUUCUUCAGAGAGCCACAUUUGGAUGUCACAUGGCUUAGGUCUAUUUUCUUGGUAACAAUUUGUACCUGACCCCCCUUAGGCUGGUAUUUGAUGUUGUCAGUUGACAACAGAGGAUUGAGCAUCA

These binders were tested against T1, UNK ZnF1-3 (assay: nsRBNS (natural sequence RNA bind-n-seq); RBNS binding buffer (assumed for nsRBNS): 25 mM Tris pH 7.5, 150 mM KCl, 3 mM MgCl2, 0.01% Triton X-100, 500 ug/ml BSA, 20 U/ml SUPERase-In, 4 C; UNK is unkempt and MSI1 is Musashi-1; names of the RNAs are library labels; protein concentration not given here; high values mean tight binding).

Binder	binding signal [enrichment R]
B1	0.48
B2	1.31
B3	1.04
B4	2.25
B5	0.992
B6	1.85
B7	1.26
B8	1.11
B9	1.13
B10	2.45
B11	0.935
B12	1.64
B13	0.861
B14	0.6
B15	0.863
B16	0.671
B17	0.721
B18	1.49
B19	0.832
B20	0.864
B21	0.564
B22	0.656
